The text below walks through data of the RNAGym collection of RNA variant scans (doi:10.7554/elife.90254).

The chains are these.
B1: LINE1-mini (parent)
chain: GGCAGAGCUCAACACAGCGUGGCAAAGUGGCUGUGGCUAGACUGCC

The source gives no read counts; variants with many changes may rest on few reads.

The data set covers variants of B1. Briefly: self-cleavage, relative activity (ratio to wild type); higher = more cleavage; in vitro, sequencing; the parent is a self-cleaving ribozyme.
Take C10U A12C A14G G27A: the self-cleavage is 0.01.
Then A4G G5C G22C U28C C37U, with 0.02; and G7A C8G U9A A16G U20G C37A, with 0.05.
Then C23U A25G U34A, with 0.22; and G1U C8G A11G, with 0.01.
Then C3A G19U A41U, with 0.18; and A4G A14G G29U, with 0.12.
For the variant C18G G21C G40U, the self-cleavage was determined as 0.01.
Then G2C A24C G40A G44A, with 0.01; and A24C A25U G33U U43G C45U, with 0.03; and G29C G30A C31U, with 0.11.
Then C31A A39U C42A, with 0.05; and G5A A26G C37G C42A, with 0.07; and C8A C18G U28G G35U A39G, with 0.06.
Then G7U C13A U20C A41C C45U, with 0.25; and C8G A14G G44C, with 0.03.
As for C15U C31A A41C G44A, the self-cleavage turned out to be 0.02.
Then G21A A25U G33C C37U, with 0.04; and G5C A6U U20A G27C C31A G33C C46A, with 0.02; and A6G G22A C31A, with 0.02.
With G5A A6G C13A C18U C23G G36C C37A C46U, the self-cleavage came out at 0.06.
Then A11C C18A U28G, with 0.01; and C8G C15G A16U, with 0.
Take C23G U28A C45G: the self-cleavage was 0.07.
A6U A25G G27C G36A G40U U43G: the self-cleavage was determined as 0.04.
As for A24C G29U U34A, the self-cleavage was 0.15.
For the variant C8A A16C G19U C42A G44C, the self-cleavage worked out at 0.11.
As for C13G U28A A39C, the self-cleavage is 0.05.
Turning to C13G C15A C23A G30C C31G, the self-cleavage worked out at 0.05.
Then C10A A12G G29A U38A, with 0.02; and G7A G19U A25G, with 0.21.
Then A14G G27C G30A, with 0.47; and G7A C18U C23G U28C C46U, with 0.07.
Then A12G G22C A26G U38A A41U, with 0.01; and C3A G7U C23A, with 0.55.
Regarding G7A G19U C23A G44U, the self-cleavage worked out at 0.06.
Take G7C G21C G29U G33A U38A C42A: the self-cleavage worked out at 0.05.
As to C8A G19A G29A C31U, the self-cleavage turned out to be 0.29.
For G1C C10U U28G, the self-cleavage worked out at 0.01.
Then G5U G35A U38G G40C C46G, with 0.01; and C3U A4G G7U U32G, with 0.07; and U9C C10G C13A G35U, with 0.01.
Then G5C C8U G21U G35U, with 0.11.
C8G G19C A25G G36U C45U: the self-cleavage worked out at 0.09.
Then C3U A11U C37U, with 0; and G36C C37U C45U, with 0.04; and G1U G30A U43A, with 0.2.
With G1U A6U C8A G30C U32A, the self-cleavage amounted to 0.04.
Then G7U C10U G29U A41G, with 0.02; and G2A C10G G44C, with 0.1; and G19A G30U U38A G40C, with 0.22.
Regarding A4U C13U A39C, the self-cleavage amounted to 0.07.
Then G5C A16G C18A C23A G27C G36C G40U, with 0.01; and C3U A11U A12U, with 0.06.
Regarding G30A A41G C45U, the self-cleavage came out at 0.04.
Then A4U U28G U38A, with 0.13; and A6U C10G A25G, with 0; and C3U G19U A26C G33U, with 0.35.
C3U A4G G40U C45G: the self-cleavage was found to be 0.33.
Then G1A A14C C15A A25U, with 0.08; and C8A A11U G30U G33U, with 0.02.
For C3A A26C C31G U34A, the self-cleavage turned out to be 0.02.
On to C13G A24U G40A, for which the self-cleavage was 0.04.
Then G5A C13U C37G, with 0.05.
For the variant G17U G27C G33C A39C, the self-cleavage worked out at 0.
Then A12U C15G A41G, with 0.15; and G1U A14U C15U C18G G30U, with 0.04.
Then U9G A26G A41U C46G, with 0; and A11U G22U A25G G33U C45A, with 0.04; and G1A A4U C8U A24G G27C G33U G35U A41C U43C, with 0.13.
Then G17C A24U A26G G33A G44A, with 0.05.
Take G7C A14U G22A U38G: the self-cleavage is 0.01.
Consider G5C G22U C23A C42G, for which the self-cleavage came out at 1.79.
Then C8U G22U A24U C31U G35U, with 0.16.
Turning to G7A C18A G36U, the self-cleavage was 0.03.
Consider C10U G35A C46A, for which the self-cleavage was determined as 0.04.
Then C15U A39G C42G, with 0.02.
Regarding A11U G19U U38C U43G, the self-cleavage turned out to be 0.
Regarding A4G U9C U32G, the self-cleavage was determined as 0.01.
Then A11U C13G C15A A24U, with 0; and G5A C10G C23A U32A C42A, with 0.01.
Turning to G36C U43C G44C, the self-cleavage came out at 0.1.
With G5C C8G C18G C31G, the self-cleavage stood at 0.
G22A U34G G44U: the self-cleavage is 0.03.
For the variant U32G G36C C46G, the self-cleavage was found to be 0.22.
Then G1U A14U A24C, with 0.07; and G21C G40U C45G, with 0.05.
With A4G C15A U20C A25C G33C, the self-cleavage came out at 0.
As to G17A C18U G27U G44U C45U, the self-cleavage was 0.03.
Then A12C U28C C37A, with 0.03.
Then A6U A14C A41C, with 0.32; and G7A G35U G40A, with 0.02; and G27C G36U G40U, with 0.1.
Take A6G A16C C18U U32A: the self-cleavage was determined as 0.03.
Then A11U C15G C37G, with 0; and G22A G35A A41C U43A, with 0.02; and C13A C15G U20A G30U, with 0.
For the variant A14U C18U G44A, the self-cleavage was found to be 0.08.
Then C3G A4G C13A G44A, with 0.06; and C8A C23A C31U G35C, with 0.14.
Then C10G C13A A26U, with 0.03; and G1U G7A A12G, with 0.25.
In the case of G1U C3A U20C, the self-cleavage came out at 0.14.
Then A16C G17A C18G U38G, with 0.01; and C13G G35U G40A, with 0.2; and A4C C37G A39C, with 0.07.
Then C3G G17A C23U G44A, with 0.22; and G2A C3U G40C, with 0.49; and C15U G19C G27U G36U, with 0.07.
On to G17C A24G G27A, for which the self-cleavage stood at 0.61.
Turning to C3A C8G A41G, the self-cleavage was 0.14.
Regarding U9C C13A G33C U38A, the self-cleavage was determined as 0.02.
Then C8U U34A A39G G44C C46A, with 0.01; and U38A A41U C46G, with 0.25.
Then C18U A26U C37U, with 0.14; and C18U G22U U32A, with 0.03; and G7U C31G G33U, with 0.07.
Then G19C C23A C31G A41U, with 0.08; and C15U G17U G27U, with 0.09.
On to G17A A41U G44C, for which the self-cleavage amounted to 0.03.
Then G7C U34G G44C, with 0.01; and C13U C18A C23G A25U A39G, with 0.05; and C3U G5C C18G U20G U32C A39G, with 0.02.
Then G2A C10U C23A U38A, with 0.02; and A16G C18G C23U U28A C37U, with 0.01; and A11G A14G U32A G33U C45G, with 0.01.
Then A16C G33U C42U, with 0.12; and G5U U9A A14C G17C, with 0.12.
In the case of U9A G21A C37U, the self-cleavage is 0.15.
Turning to G2A G7U C18A U20A, the self-cleavage came to 0.05.
Then C23U G27U C42U C46U, with 0.19; and A14G C18U G27U, with 0.8; and A14U C23A C31G, with 0.
Take G7U G22C U28A C37A A39G C46G: the self-cleavage was 0.02.
Then G21A G27U G36A, with 0.17; and A12U U32G C45U, with 0.01; and G19U G29U C37U A39U, with 0.07.
As for C3G U9A C10U U20G U34A C46G, the self-cleavage is 0.06.
Then A6U G40U A41U, with 0.01; and G22C U32G G35A C37A, with 0.01.
Then C3A C8G A14G, with 1.51; and G1C C18U C37G, with 0.07.
Then G2A G22U U34A G35C, with 0.12; and C13U A14U G17A, with 0.13.
For the variant C10U C31A C45U, the self-cleavage stood at 0.25.
For the variant G5C G7A C15A, the self-cleavage was found to be 0.15.
In the case of C15U G17A G21C U28C C46A, the self-cleavage was found to be 0.24.
Then C3G A6U G17U U34C G40U, with 0.11; and G5A A11G A12C C15A G27U G36A, with 0.01.
For C8A A16C G27A C45U, the self-cleavage is 0.18.
Then C13G G17U U28A G29U C42U, with 0.28.
Then A12U C15G G29A, with 0.02; and A12C U28A C31A, with 0.02; and G5U C8U G27C, with 0.23.
Then A24U U28A U34C C46A, with 0.08; and G1C G5U A25G U38A G40C, with 0.02; and G22A U28A C31A, with 0.31.
For G7A C23G G30U G44C, the self-cleavage was determined as 0.03.
Then A4U U20C C45G, with 0.05.
Consider G1A C10A C31A, for which the self-cleavage was found to be 0.04.
Then G2U G21A A25G G30U C46A, with 0.07; and G7C A14U U43A, with 0.01.
In the case of C18G U38G A41G, the self-cleavage amounted to 0.
Then C15A G36U G40C, with 0.08.
Turning to G7U G19U U28A U43A, the self-cleavage is 0.23.
On to A4G G21U G29C U43C, for which the self-cleavage is 0.27.
Take G7U C13U A16U U38C G40C: the self-cleavage came to 0.05.
